Results taken from PubChem BioAssay AID488969 (Vanderbilt High Throughput Screening Facility, 2010).
Whole data set: some 110,000 compounds, median “z-score” near -0.1, cut for the highest 2% near 2. The list shows a part of the results. The source made the active and inactive calls.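 How the source made its calls: active means z-score in the third read window above 3 or below -3; inactive means the rest.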

Target: Metabotropic glutamate receptor 8 (Rattus norvegicus) (UniProt P70579)
Experiment: mGluR8 Gi/Go-coupled signaling modulation – cell-based, rat, thallium flux, HTS, primary screen (AID 488969)
Conditions: HEK293 rat mGluR8, GIRK (G protein-gated inwardly rectifying potassium channel) thallium flux, FluoZin2; at 10 µM; stronger effect = higher value; submaximal glutamate (EC20) added with thallium

UniProt P70579, sequence (P70579 whole entry, looked up): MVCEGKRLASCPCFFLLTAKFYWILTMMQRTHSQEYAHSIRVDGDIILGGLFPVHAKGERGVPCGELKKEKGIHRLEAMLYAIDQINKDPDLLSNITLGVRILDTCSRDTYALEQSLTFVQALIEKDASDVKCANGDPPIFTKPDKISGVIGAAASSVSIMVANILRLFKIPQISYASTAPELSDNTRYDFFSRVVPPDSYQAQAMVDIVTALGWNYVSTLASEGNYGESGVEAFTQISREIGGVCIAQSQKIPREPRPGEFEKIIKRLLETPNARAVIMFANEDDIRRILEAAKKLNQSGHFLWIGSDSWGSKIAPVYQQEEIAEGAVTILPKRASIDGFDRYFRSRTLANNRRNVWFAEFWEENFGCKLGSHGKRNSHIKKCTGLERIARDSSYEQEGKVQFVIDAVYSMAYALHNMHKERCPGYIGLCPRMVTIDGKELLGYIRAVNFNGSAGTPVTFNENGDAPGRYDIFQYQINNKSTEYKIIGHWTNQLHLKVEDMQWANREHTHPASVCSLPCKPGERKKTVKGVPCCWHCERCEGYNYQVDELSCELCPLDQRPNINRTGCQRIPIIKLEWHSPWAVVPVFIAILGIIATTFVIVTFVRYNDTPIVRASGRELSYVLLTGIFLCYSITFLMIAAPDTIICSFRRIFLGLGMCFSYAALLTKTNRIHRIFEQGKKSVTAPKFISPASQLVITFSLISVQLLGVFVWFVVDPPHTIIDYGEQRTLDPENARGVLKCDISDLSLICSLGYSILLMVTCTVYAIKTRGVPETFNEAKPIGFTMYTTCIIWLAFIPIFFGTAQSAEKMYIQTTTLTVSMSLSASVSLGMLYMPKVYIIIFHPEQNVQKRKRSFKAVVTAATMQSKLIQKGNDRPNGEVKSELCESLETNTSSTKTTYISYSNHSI

SMILES	z-score
O=C(NC1CCCCC1)C(c1ccccc1)N1CCOCC1 (stereo not given)	-0.0618
CCCCn1c(NC(C)CC)nc2c1c(=O)[nH]c(=O)n2C (stereo not given)	0.471
COC(=O)c1cc(OC)c(OC)cc1NC(=S)N1CCN(C)CC1	-0.191
Cc1cccc(OCc2nnc(NC(=O)Cc3cccs3)s2)c1	-0.55
COc1ccc(OC)c(NC2=NC3(CCCC3)N=C(N)N2)c1	-0.103
Cc1[nH]nc2c1C1(CCN(Cc3ccccc3)CC1)C(C#N)=C(N)O2	0.827
O=C(COc1ccc(Cl)cc1Cl)NC(=S)N1CCCc2ccccc21	active: 13.2
CC(=O)c1c(NC(=O)C(C)C)nc(C)nc1-c1ccccc1	0.562
Cc1ccc(C)c(-c2csc(N)c2C(=O)OC(C)C)c1	0.0236
CCOC(=O)C(C)n1cnc2c(nnn2-c2ccc(OC)cc2)c1=O (stereo not given)	-0.258
O=C(OCc1cccc(F)c1)c1ccc2c(c1)-c1ccccc1C2=O	-0.0794
Cc1ccc(-c2nn(C)c(=O)c3ccccc23)cc1S(=O)(=O)NCCO	0.214
Cc1ccc(CN2CCN(CC(=O)N3CCC(C(N)=O)CC3)C2=O)cc1	-0.229
CCOc1ccc(-n2cc(C(=O)Nc3cccc(Cl)c3)c3cc(OC)c(OC)cc3c2=O)cc1	-0.164
Cc1cc(C)c2c(CN3CCN(C)CC3)cc(=O)oc2c1	-0.5
Cc1nnc(-c2cnn(C)c2N)n1Cc1ccccc1F	0.324
Cc1cc(NC(=O)c2cccc(F)c2)no1	0.125
Cc1ccc(NC2=C(N3CCOCC3)C(=O)c3ccccc3C2=O)cc1	-0.00307
O=C(CCC(=O)c1ccc(Oc2ccccc2)cc1)Nc1cccc(Cl)c1	-0.0331
Cc1ccc(Cl)cc1-c1ccc(C=Nc2ccc(N3CCOCC3)cc2)o1	-0.123
CC(C)CCNC(=O)Cn1c(NCCC(C)C)nc2c1c(=O)n(C)c(=O)n2C	-0.109
COc1ccc(/C=N/NC(=O)CCCOc2ccc(Cl)cc2Cl)cc1	-0.126
CCOc1ccc(S(=O)(=O)Nc2ccccc2SC)c2cccnc12	-0.258
Fc1ccc(Oc2nc(-c3ccccc3)nnc2C(F)(F)F)cc1	0.388
O=C(COC(=O)c1cccnc1Cl)Nc1nc(-c2ccccc2)cs1	-0.566
CC(C)CC(=O)Nc1cccc2c1C(=O)N(c1ccccc1)C2=O	active: -3.2
COCCNC(=O)Cn1nc(C(F)(F)F)c(Cl)c1C	-0.0378
COc1ccc(Br)cc1/C=C/C(=O)Nc1c(C)cccc1C	-0.182

SMILES	z-score
CCC(C)(C)n1nnnc1CN1CCC(NC(=O)c2ccccc2C)CC1	0.0757
COc1ccc(-c2c(C#N)c(SCC(=O)c3cc4ccccc4oc3=O)nc(C)c2C(=O)Nc2ccccc2)cc1	-0.154
Cc1cc(C)nc(SCC(=O)N/N=C/c2cccs2)n1	-0.00188
Cc1cc(OCC(=O)Nc2ccc(N3CCN(C(=O)c4ccco4)CC3)cc2)cc(C)c1Cl	-0.102
CCOC(=O)N1CCC(NC(=O)C(CC(C)C)NC(=O)C2CCC(C)CC2)CC1 (stereo not given)	-0.0395
O=C(CN1CCN(c2nc(-c3ccccc3)cs2)CC1)NNC(=O)c1ccc(Br)cc1	-0.222
CCOC(=O)N1CCN(C(=O)C2CCN(Cc3nc(-c4ccccc4C)oc3C)CC2)CC1	-0.822
CCNC(=S)NNC(=O)c1cc(-c2cccc(OCC)c2)nc2ccccc12	-0.498
Cc1ccccc1Cn1ccc(NC(=O)CCSc2nc(-c3ccco3)cc(C(F)(F)F)n2)n1	-1.32
CCCn1nnc(NC(=S)NC(=O)CC)n1	-0.197
CCC(c1nnnn1C1CCCC1)N1CCN(Cc2ccccc2)CC1 (stereo not given)	0.0349
O=C(CCCC(=O)N(CC(=O)NC1CCCC1)Cc1ccccc1)Nc1ccccn1	-0.397
CCCN1CN(Cc2ccco2)c2nc3ccccc3n2C1	1.21
Cc1ccc(C(=O)COC(=O)CCC(=O)Nc2cc(Cl)ccc2Cl)cc1[N+](=O)[O-]	0.229
Cc1nnc(SCc2ccccc2)nc1/C=C/NOCc1ccc(Cl)cc1Cl	-0.245
COc1ccc2cc(-c3nc4ccccc4n3C)c(=O)oc2c1	0.139
CCCCc1ccc(Nc2ncccc2C#N)cc1	0.0326
O=C(CCC1CCCC1)N1CCN(C(=O)C2CC2)CC1	0.124
COc1cc(/C=N/NC(=O)C2(O)c3ccccc3-c3ccccc32)ccc1O	-0.34
O=C(CSc1nc2nc3c(cc2c(=O)n1-c1ccccc1)CCCC3)Nc1ccccc1	-0.468
CCOC(=O)CSc1nc2ccccc2c(=O)n1NC(=O)c1ccccc1	-0.107
CN(C)CCN(Cc1ccccc1)c1nccc(N(C)C)c1C#N	-0.252
OC(COCCOc1ccc(Br)cc1)CN1CCCCC1 (stereo not given)	0.448
Cc1ccccc1Nc1cc(C(=O)NCc2ccco2)c2ccccc2n1	-0.0644
O=S(=O)(NCCC(c1ccc(F)cc1)c1ccco1)c1ccccc1 (stereo not given)	-0.444
C=CCn1c(SCC(=O)Nc2ccc(-c3nc4ccc(C)cc4s3)cc2)nnc1-c1ccccc1	0.381
COCCN(C(=O)c1ccco1)c1nnc(-c2ccc(OC)cc2)s1	-0.82
